# Values joined by “and” are separate entries in the source; they are usually repeats but may differ in a detail not shown here. Equal entries are not always repeated. Inconclusive results, whose numbers are uncertain, are shown with a selection of clear calls. For some assays here: A potency beside an inconclusive call is a rough fit, not a confirmed value. Some structures have more than one record in an assay (separate samples or runs), and their calls can disagree. Active and inactive are the calls of the source. Calls come from the whole dose curve; as a rule, active = well fitted curve in the direction sought with a large enough effect in the repeat runs; inconclusive = weak or mixed curves; inactive = no such curve, though single readings can be large; an effect the other way counts as inactive or inconclusive.
# Columns and labels:
# [1] = qHTS assay for identifying genotoxic compounds that show differential cytotoxicity against isogenic chicken DT40 cell lines with known DNA damage response pathways - Rev3 mutant cell line (AID 743014); settings: chicken DT40 Rev3-/- viability, CellTiter-Glo, 40 h; note: nearly all actives have a fitted effect of over 55% in size; for activity, negative = cytotoxicity: % is set by controls: 0 for no effect and ±100 for the full control effect
# [2] = biological target: Androgen receptor (Homo sapiens) (UniProt P10275); assay: qHTS assay to identify small molecule antagonists of the androgen receptor (AR) signaling pathway using the MDA cell line (AID 743042; note: nearly all actives have a fitted effect of over 55% in size); settings: MDA-kb2 AR-luc, MMTV luciferase, R1881 antagonist, 16 h; series mostly up to 70.3 µM
# UniProt P10275, sequence (P10275 whole entry, looked up): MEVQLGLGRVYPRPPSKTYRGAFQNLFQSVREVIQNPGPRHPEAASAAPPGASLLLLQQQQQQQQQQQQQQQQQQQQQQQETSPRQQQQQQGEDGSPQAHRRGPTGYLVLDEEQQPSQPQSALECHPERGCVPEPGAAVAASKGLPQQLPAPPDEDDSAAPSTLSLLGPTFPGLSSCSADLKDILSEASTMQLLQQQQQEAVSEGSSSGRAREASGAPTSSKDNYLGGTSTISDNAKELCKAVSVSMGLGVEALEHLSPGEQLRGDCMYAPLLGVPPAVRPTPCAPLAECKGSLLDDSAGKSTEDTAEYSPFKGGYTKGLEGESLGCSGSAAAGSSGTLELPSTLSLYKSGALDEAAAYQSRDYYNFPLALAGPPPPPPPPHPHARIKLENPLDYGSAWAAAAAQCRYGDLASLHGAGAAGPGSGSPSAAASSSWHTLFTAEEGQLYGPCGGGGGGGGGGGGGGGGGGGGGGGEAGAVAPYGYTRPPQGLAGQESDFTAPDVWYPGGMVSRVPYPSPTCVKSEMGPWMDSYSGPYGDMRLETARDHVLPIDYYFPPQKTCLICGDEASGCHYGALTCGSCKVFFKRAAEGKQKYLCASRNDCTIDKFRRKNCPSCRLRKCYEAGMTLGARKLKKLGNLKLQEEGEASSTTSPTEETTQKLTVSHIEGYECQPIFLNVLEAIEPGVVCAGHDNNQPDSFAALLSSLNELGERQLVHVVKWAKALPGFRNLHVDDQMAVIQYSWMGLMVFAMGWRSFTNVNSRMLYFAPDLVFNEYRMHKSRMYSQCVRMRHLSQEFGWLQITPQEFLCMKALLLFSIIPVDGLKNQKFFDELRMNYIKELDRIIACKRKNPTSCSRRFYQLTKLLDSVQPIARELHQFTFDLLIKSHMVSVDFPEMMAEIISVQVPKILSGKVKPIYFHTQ
# Outline: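 MDA-kb2 cells (human breast carcinoma, stably carrying an MMTV-luciferase reporter responsive to AR and GR) were plated at 3,000 cells/well and preincubated 5 hr at 37C, then given compound plus R1881 agonist for 16 h. ONE-Glo luminescence was read.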
# [3] = qHTS assay to identify small molecule antagonists of the thyroid receptor (TR) signaling pathway (AID 743065); settings: GH3.TRE-Luc, T3-stimulated luciferase inhibition, 23.5 h; series mostly up to 70.3 µM; note: nearly all actives have a fitted effect of over 55% in size
# Outline: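 GH3.TRE-Luc rat pituitary cells carrying two TR response elements driving luciferase were plated for 4 h, given compound plus 1 nM T3 (final), and incubated 23.5 h at 37 C. ONE-Glo luminescence measured reporter inhibition; CellTiter-Fluor fluorescence tracked cytotoxicity.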
# [4] = qHTS assay for identifying genotoxic compounds that show differential cytotoxicity against isogenic chicken DT40 cell lines with known DNA damage response pathways - Rad54/Ku70 mutant cell line (AID 743015); settings: DT40 Rad54/Ku70 mutant viability, CellTiter-Glo, 40 h; activity change, negative = cytotoxicity: at 66.8 µM (top of the series) unless noted; note: nearly all actives have a fitted effect of over 60% in size
# [5] = qHTS assay to identify small molecule antagonists of the androgen receptor (AR) signaling pathway - cell viability counter screen (AID 743033; note: nearly all actives have a fitted effect of over 45% in size); settings: AR-bla HEK293 viability, CellTiter-Glo luminescence, 16 h; series mostly up to 58.5 µM
# [6] = qHTS assay to identify small molecule antagonists of the androgen receptor (AR) signaling pathway using the MDA cell line - cell viability counter screen (AID 743041; note: nearly all actives have a fitted effect of over 45% in size); settings: MDA-kb2 viability, CellTiter-Fluor, 16 h, cells co-treated with R1881 androgen agonist; viability change, negative = cytotoxic: at 70.3 µM (top of the series) unless noted
# Outline: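 Viability counter screen run alongside the AR antagonist reporter: cells seeded 5 h before compound, R1881 added, 16 h incubation at 37C without CO2, fluorescent CellTiter-Fluor signal quantified.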
# [7] = qHTS assay to identify small molecule antagonists of the thyroid receptor (TR) signaling pathway - cell viability counter screen (AID 743064); settings: GH3.TRE-Luc viability, CellTiter-Fluor, 24 h; activity change, negative = cytotoxic: at 70.3 µM (top of the series) unless noted; note: nearly all actives have a fitted effect of over 50% in size
# Outline: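 Same-well viability check: GH3.TRE-Luc cells stimulated with 1 nM T3 alongside test compound for 23.5 h, followed by CellTiter-Fluor fluorescence.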
# Potency is the fitted concentration of half-maximal effect; tags give direction and shape of the fitted curve.
structure (smiles),measurement,setting,value
c1ccc2c(c1)-c1cccc3c1c-2cc1ccccc13,"activity, negative = cytotoxicity",[1]; at 68.4 µM (top of the series),inactive: 1.32%
CC(C)OC(=O)C(C)(C)Oc1ccc(C(=O)c2ccc(Cl)cc2)cc1,Potency,[2],active: 48.6 µM
CCCCCCCCCCOCC(O)CN (stereo unspecified),Potency,[2],"inconclusive: 33.5 µM [inhibitor, single point]"
CN(C)CCN(Cc1cccs1)c1ccccn1,Potency,[3],"inconclusive: 18.8 µM [inhibitor, partial curve] and inconclusive: 48.3 µM [inhibitor, partial curve] and inconclusive: 22.4 µM [inhibitor, partial curve]"
CC[C@H](c1ccc(O)cc1)[C@@H](CC)c1ccc(O)cc1,Potency,[3],inconclusive: 12.7 µM [inhibitor]
O=C(OC[C@H]1O[C@@H](OC(=O)c2cc(O)c(O)c(OC(=O)c3cc(O)c(O)c(O)c3)c2)[C@H](OC(=O)c2cc(O)c(O)c(OC(=O)c3cc(O)c(O)c(O)c3)c2)[C@@H](OC(=O)c2cc(O)c(O)c(OC(=O)c3cc(O)c(O)c(O)c3)c2)[C@@H]1OC(=O)c1cc(O)c(O)c(OC(=O)c2cc(O)c(O)c(O)c2)c1)c1cc(O)c(O)c(OC(=O)c2cc(O)c(O)c(O)c2)c1,Potency,"[1]; activity, negative = cytotoxicity: at 68.4 µM (top of the series) unless noted",active: 10.6 µM and active: 16.5 µM
same,Potency,[4],"inconclusive: 18.5 µM [cytotoxic, single point]"
same,Potency,[5],"active: 19 µM and inconclusive: 10.5 µM [cytotoxic, partial curve, poor fit]"
same,Potency,[6],"active: 22.1 µM and inconclusive: 18.5 µM [cytotoxic, single point]"
same,Potency,[7],active: 3.35 µM and active: 16.5 µM
same,Potency,[3],active: 3.76 µM and active: 16.5 µM

# From PubChem BioAssay (Tox21)
